Experimental data as given in publication PMC4336329 (PLoS ONE, 2015).
About 2,200 (0.71%) of roughly 310,000 compounds showed an effect of 50% or more. The effect is printed as a negative number. The list shows a part of the results.

Target: human ether-à-go-go-related gene (hERG) potassium channel (human, UniProt Q12809)
Test: primary screen, population patch clamp on CHO cells stably expressing hERG

Chain of human ether-à-go-go-related gene (hERG) potassium channel (Q12809 whole entry, looked up): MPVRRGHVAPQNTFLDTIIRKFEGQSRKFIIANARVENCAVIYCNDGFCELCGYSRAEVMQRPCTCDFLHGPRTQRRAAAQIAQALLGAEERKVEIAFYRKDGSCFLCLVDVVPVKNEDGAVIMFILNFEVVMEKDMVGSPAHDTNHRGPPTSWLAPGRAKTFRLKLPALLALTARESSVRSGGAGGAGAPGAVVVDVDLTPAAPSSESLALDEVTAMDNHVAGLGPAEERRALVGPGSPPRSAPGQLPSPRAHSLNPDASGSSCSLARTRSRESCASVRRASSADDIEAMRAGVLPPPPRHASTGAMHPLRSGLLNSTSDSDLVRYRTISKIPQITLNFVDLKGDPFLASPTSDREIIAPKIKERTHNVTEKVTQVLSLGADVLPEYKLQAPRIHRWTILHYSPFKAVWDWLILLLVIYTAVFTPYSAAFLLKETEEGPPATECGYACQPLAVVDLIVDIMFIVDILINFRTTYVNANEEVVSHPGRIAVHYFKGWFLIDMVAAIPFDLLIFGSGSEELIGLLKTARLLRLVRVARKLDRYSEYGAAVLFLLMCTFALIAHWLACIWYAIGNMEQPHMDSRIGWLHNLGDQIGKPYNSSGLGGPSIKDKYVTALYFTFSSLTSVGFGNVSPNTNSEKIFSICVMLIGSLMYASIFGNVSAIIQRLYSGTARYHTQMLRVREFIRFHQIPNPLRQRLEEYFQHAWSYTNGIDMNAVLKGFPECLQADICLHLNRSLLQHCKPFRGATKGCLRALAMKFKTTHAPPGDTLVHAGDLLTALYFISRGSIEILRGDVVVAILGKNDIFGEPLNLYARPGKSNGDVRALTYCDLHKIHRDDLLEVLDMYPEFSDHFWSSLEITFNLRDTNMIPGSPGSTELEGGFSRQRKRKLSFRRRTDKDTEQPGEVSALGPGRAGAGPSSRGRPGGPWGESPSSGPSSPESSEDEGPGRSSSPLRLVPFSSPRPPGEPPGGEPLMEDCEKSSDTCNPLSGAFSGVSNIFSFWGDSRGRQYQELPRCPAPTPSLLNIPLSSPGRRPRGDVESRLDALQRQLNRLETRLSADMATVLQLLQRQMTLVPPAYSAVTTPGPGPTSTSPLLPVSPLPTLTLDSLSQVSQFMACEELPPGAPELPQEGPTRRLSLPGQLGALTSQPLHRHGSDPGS

| SMILES | hERG current change (%, negative = inhibition) at 1uM |
| --- | --- |
| Cc1ccc2[nH]c(O)c(N=NC(=O)C3CC3c3ccccc3)c2c1Br (stereo not shown) | -5.29% |
| COc1ccc2c(C(=O)CN(C)C3CCCCC3)c[nH]c2c1 | 15.5% |
| CCOC(=O)CN1C(=O)N[C@@H](CCc2ccccc2)[C@H](C(C)=O)[C@H]1C | 8.86% |
| Cc1cc(NC(=O)CSc2nnc(C3CC3)n2-c2ccccc2)no1 | 1.75% |
| COc1cccc(C=Nc2ccc3c(c2)OCCO3)c1O | 13.3% |
| CCOc1ccc(S(=O)(=O)N2CCN(Cc3ccccc3)CC2)c2cccnc12 | -5.92% |
| CSC1=NSC2=NC(=O)/C(=C\c3cccs3)C(=N)N12 | 11.7% |
| Nc1nc(Br)c2ccccc2c1-c1ccccc1 | 9.58% |
| O=C(Nc1ccccc1)c1ccccc1NC(=O)c1ccccc1[N+](=O)[O-] | 11% |
| CCCOc1ccccc1C1CC(=O)NC(C)=C1C(=O)OCC(C)C (stereo not shown) | -1.64% |
| Cc1ccc(-c2ccc(SCC(=O)NC3CCCCC3)nn2)cc1 | 7.43% |
| COc1ccc(N2CCCn3c2nc2c3c(=O)n(CCN3CCOCC3)c(=O)n2C)cc1 | 2.51% |
| CC(=O)Nc1cccc(NC(=S)Nc2cccc3ccccc23)c1 | 12.7% |
| O=C(c1ccc(C(F)(F)F)cc1)C1CCCN(C(=O)CCn2cncn2)C1 (stereo not shown) | -12% |
| CC1CN(c2ccc([N+](=O)[O-])cc2F)CCN1C(=O)c1ccco1 (stereo not shown) | -40.2% |
| Cc1cc(C)n(CC(=O)NC2CCCc3c2cnn3-c2ccccc2F)n1 (stereo not shown) | 7.86% |
| CCC(=O)N1CCN(C(=O)c2ccccc2)CC1 | 11.8% |
| COc1ccccc1OCC(=O)Nc1cc(Cl)ccc1Oc1ccccc1 | 2.43% |
| O=C(CNCC1CCCO1)Nc1ccccc1N1CCCCCC1.O=C(O)C(=O)O (stereo not shown) | 13% |
| CC(C)(C)OC(=O)CC[C@@H](C(=O)NCCCCCCCCCCC(=O)N1CCN(C(=O)OC(C)(C)C)CC1)n1cc(CCCCCNC(=O)OC(C)(C)C)nn1 | 4.64% |
| CSCCC(NS(=O)(=O)c1ccc2c(c1)c(=O)n(C)c(=O)n2C)C(=O)NC1CCN(Cc2ccccc2)CC1 (stereo not shown) | 18.2% |
| CC(=O)Nc1ccc(NC(=O)c2ccc(CSc3ccccc3)o2)cc1 | 6.49% |

| SMILES | hERG current change (%, negative = inhibition) at 1uM |
| --- | --- |
| O=C(O)Cn1cc(/C=C/[N+](=O)[O-])c2ccccc21 | 4.59% |
| CC(=O)c1c(O)cc(=O)n(-c2ccccc2)c1-c1ccc(Cl)cc1 | 15.4% |
| CC(=O)Nc1ccc(/C(C)=N/Nc2nc(Nc3ccccc3)nc(N3CCOCC3)n2)cc1 | 11.4% |
| CCCc1cc(=O)[nH]c(SCC(=O)N2CCc3ccccc3C2)n1 | 10.4% |
| Cc1noc(C)c1S(=O)(=O)N1CCC(C(=O)Nc2ccc(Br)cc2)CC1 | 11.1% |
| COc1ccc(CN2C(=O)CN=C2Nc2cccc(C)c2C)cc1.Cl | -6.02% |
| COC(=O)Cc1cc(=O)n2[nH]c(C(F)(F)F)nc2n1 | 5.48% |
| COc1ccc(NC(=O)Cn2cc(C(=O)c3ccco3)c3ccccc32)cc1 | 2.53% |
| Cc1ccc2nc(-c3cccc(Br)c3)cc(C(=O)Nn3cnnc3)c2c1 | 9.54% |
| Cc1cc(C)n(CCNc2nc3nonc3nc2N2CCCCC2)n1 | 6.4% |
| CC(C)COC(=O)CCn1[nH]c(=O)c2ccccc2c1=O | 5.67% |
| O=C(CSCc1ccc(Cl)cc1)N/N=C/c1ccco1 | 11.7% |
| Cc1ccc2cc(C#N)c(NCCNC(=O)C3CC3)nc2c1C | 9.04% |
| O=C(c1ccc(-c2ccccc2)cc1)C1CCCN(C(=O)c2cncs2)C1 (stereo not shown) | 3.61% |
| CCc1nc(SCC(=O)NCCc2ccccc2)n[nH]1 | 1.78% |
| O=C(CSc1ccc2nnc(-c3ccccn3)n2n1)NCc1ccc2c(c1)OCO2 | -65.8% |
| CCCCC(=O)NCCc1ccc(OC)cc1 | 11.6% |
| C=CCOC(=O)C1=C(C)OC(N)=C(C#N)C1c1ccc2c(c1)OCO2 (stereo not shown) | 13.4% |
| CN=C1C=C/C(=N/N=c2\ccn(O)cc2C)C=C1C | -1.51% |
| O=C(CN1C(=O)c2cccnc2C1=O)c1ccccc1 | 3.26% |
| COc1ccc(-n2nnnc2SCC(=O)Nc2ccccc2)cc1 | 15.7% |
| CCCNC(=O)c1ccc(C2SCC(=O)N2CCc2ccccc2)cc1 (stereo not shown) | 5.43% |

| SMILES | hERG current change (%, negative = inhibition) at 1uM |
| --- | --- |
| Cc1noc(C)c1C(=O)Nc1ccc(-c2nnc3n2CCCCC3)cc1 | 11.5% |
| COc1cc(/C=N/NC(=O)c2c(C)nc3ccc(Cl)cn23)cc(OC)c1OC | 13.6% |
| COc1cc(COc2ccc3c(C)c(Cc4ccccc4)c(=O)oc3c2)cc(OC)c1OC | -16.1% |
| COCCCNCC(O)COc1ccccc1F (stereo not shown) | 11.4% |
| O=C(Cc1ccccc1)Nc1ccccc1C(=O)Nc1ccc(C(=O)O)cc1 | 13.2% |
| Cc1cccc(CNc2ccc(S(=O)(=O)N3CCCCC3)cc2)c1 | -0.0701% |
| CCOC(=O)C1(CC)NC(c2ccc(OC)cc2OC)C2C(=O)N(C)C(=O)C21 (stereo not shown) | 2.87% |
| CCn1cnc2scc(-c3ccc(C)c(C)c3)c2c1=O | -1.44% |
| CCC(O)CNC(=O)CCc1nnc(C2(c3ccc(Cl)cc3)CCC2)o1 (stereo not shown) | 9.59% |
| Cc1nc2c(ccc3nc(NC(=O)C4CC4)sc32)s1 | 6.36% |
| Clc1ccc(C[n+]2csc3ccccc32)cc1.[Br-] | 3.46% |
| O=C(COC(=O)CCc1nc2ccccc2c(=O)[nH]1)Nc1ccccc1Cl | 11.3% |
| COc1ccc(OC)c2sc(NC(=O)c3ccc(Cl)s3)nc12 | 9.34% |
| CC(CNC(=O)CN1C(=O)CCSc2ccccc21)c1ccccc1 (stereo not shown) | 14.6% |
| CCOC(=O)C1CCN(C(=O)CSc2cc(=O)n(CC)c3ccccc23)CC1 | 5.03% |
| CCCCc1cc(=O)oc2cc(OCC(=O)N3CCC(C(=O)O)(c4ccccc4)CC3)ccc12 | -4.58% |
| CC(=O)N1c2ccccc2NC2=C(C(=O)CCC2)C1c1ccco1 (stereo not shown) | 4.1% |
| Nc1nc(-c2ccccc2)nn1C(=O)c1ccco1 | 14.2% |
| Cc1c2n(c3ccccc13)CCN(C)C2 | 14.6% |
| C=CCn1c(O)c(C=Nc2ccc(OC)cc2C)c(=O)[nH]c1=O | 12.1% |
| CCOC(=O)c1ccc2[nH]c3c(c2c1)CCCC3 | 7.28% |
| O=S(=O)(c1ccc(OC(F)(F)F)cc1)N1CCCC(c2ccccc2)C1 (stereo not shown) | 11.9% |

| SMILES | hERG current change (%, negative = inhibition) at 1uM |
| --- | --- |
| O=C(c1ccc(C(=O)N2CCN(c3ccccc3F)CC2)nc1)N1CCN(c2ccccc2F)CC1 | 9.04% |
| CCN1/C(=C2/SC(=S)N(C)C2=O)C=Cc2cc(C)ccc21 | 0.0036% |
| Cl.OCCNCc1cccc(Br)c1 | 2.6% |
| COC(=O)CNC(=O)C(C)(C)Oc1ccc(Cl)cc1 | 11.2% |
| COC(=O)[C@@H]1C[C@@]2(O)[C@H](O)[C@H](O)[C@H](O)C[C@H]2N1Cc1ccc(-c2ccccc2)cc1 | 16.9% |
| CCOc1ccc(S(=O)(=O)N(C)c2ccc(OCC(=O)NCc3ccc(C(=O)OC)cc3)cc2)cc1 | -1.81% |
| COc1ccccc1CCC(=O)OCC(=O)NC1CC1 | 5.74% |
| O=S(=O)(c1ccc(Oc2ccc3oc4ccccc4c3c2)nc1)N1CCCC1 | -10.9% |
| CC1CCN(C(=O)C2CCCN2S(=O)(=O)c2ccc(Cl)cc2)CC1 (stereo not shown) | 10.4% |
| COC(=O)Nc1ncc(CN2C(=O)c3ccccc3C2=O)s1 | -4.83% |
| O=C(O)C(F)(F)F.O=C1C(Cc2ccccc2)Nc2ncnc(N3CCc4ccccc4C3)c2N1Cc1ccc(Cl)cc1 (stereo not shown) | 21.2% |
| CC(C)(O)C#Cc1ccc(CN2CCN(Cc3ccsc3)C(CCO)C2)cc1 (stereo not shown) | 1.26% |
| COC(=O)c1cc2occc2n1Cc1nc(-c2ccccc2F)oc1C | 7.08% |
| Cc1cc(C(=O)N2CCN(S(C)(=O)=O)CC2)sc1-c1ccccc1 | 11.2% |
| O=C(COC(=O)c1ccc(Br)cc1)NCc1ccccc1 | 13.8% |
| CCOC(=O)c1ccc(NC(=O)C23CCC(C)(C(=O)O2)C3(C)C)cc1 (stereo not shown) | 4.42% |
| Cc1cc(C(=O)O)ccc1-n1c(C)ccc1C | 7.86% |
| CC/C(=N/NC(=O)CNc1ccc(Cl)cc1C)c1ccccc1 | 12.2% |
| Cc1cccc2cc(C(c3nnnn3Cc3ccccc3)N3CCN(c4ccccc4)CC3)c(=O)[nH]c12 (stereo not shown) | -0.284% |
| COc1ccc(C2(c3ccc(OC)cc3)NC(=O)N(CC(=O)Nc3ccc(N4CCOCC4)cc3)C2=O)cc1 | -3.75% |
| O=C(CSc1nc(N2CCCCC2)nc(N2CCCCC2)n1)c1ccccc1 | -1.64% |
| CN(CC(=O)N1CCN(Cc2ccccc2)CC1)S(=O)(=O)c1ccc(Br)cc1 | -3.88% |
